This is one part of the list.
Key:
Assay in all cases: glycan array binding signal (z-score within array); higher = stronger binding
Conditions in all cases: glycan notation: IUPAC condensed, linker removed
[1] = target: Gal(b1-4)GlcNAc(b1-3)Gal(b1-4)Glc
Procedure, shortened: (§1)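 Glycan array binding is given as a within-array Z-score, which can be read as non-binding when negative. The arrays, 3228 of them, came from the Consortium for Functional Glycomics database and were retained only where the protein sequence was available. Z-scores were averaged across arrays of the same protein sequence at different concentrations or buffers and across linkers.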

[2] = target: Gal(b1-4)GlcNAc(b1-3)Gal(b1-4)GlcNAc
Procedure, shortened: as §1

[3] = target: Gal(b1-4)GlcNAc(b1-3)Gal(b1-4)GlcNAc(b1-3)Gal(b1-4)GlcNAc
Procedure, shortened: as §1

[4] = target: Gal(b1-4)GlcNAc(b1-3)Gal(b1-4)[Fuc(a1-3)GlcNAc(b1-6)]Gal(b1-4)Glc
Procedure, shortened: as §1

[5] = target: Gal(b1-4)GlcNAc(b1-3)Gal(b1-4)[Fuc(a1-3)]GlcNAc(b1-3)Gal(b1-4)[Fuc(a1-3)]GlcNAc
Procedure, shortened: as §1

[6] = target: Gal(b1-4)GlcNAc(b1-3)GalNAc
Procedure, shortened: as §1

[7] = target: Gal(b1-4)GlcNAc(b1-3)[Gal(b1-4)GlcNAc(b1-6)]Gal(b1-4)GlcNAc
Procedure, shortened: as §1

[8] = target: Gal(b1-4)GlcNAc(b1-3)[Gal(b1-4)GlcNAc(b1-6)]GalNAc
Procedure, shortened: as §1

[9] = target: Gal(b1-4)GlcNAc(b1-3)[GlcNAc(b1-6)]Gal(b1-4)GlcNAc
Procedure, shortened: as §1

[10] = target: Gal(b1-4)GlcNAc(b1-6)Gal(b1-4)GlcNAc
Procedure, shortened: as §1

[11] = target: Gal(b1-4)GlcNAc(b1-6)GalNAc
Procedure, shortened: as §1

[12] = target: Gal(b1-4)GlcNAc(b1-6)[Gal(b1-3)]GalNAc
Procedure, shortened: as §1

[13] = target: Gal(b1-6)Gal
Procedure, shortened: as §1

[14] = target: Gal3S(b1-3)GalNAc
Procedure, shortened: as §1

[15] = target: Gal3S(b1-3)GlcNAc
Procedure, shortened: as §1

[16] = target: Gal3S(b1-3)[Fuc(a1-4)]GlcNAc
Procedure, shortened: as §1

[17] = target: Gal3S(b1-4)Glc
Procedure, shortened: as §1

[18] = target: Gal3S(b1-4)Glc6S
Procedure, shortened: as §1

[19] = target: Gal3S(b1-4)GlcNAc
Procedure, shortened: as §1

[20] = target: Gal3S(b1-4)GlcNAc6S
Procedure, shortened: as §1

[21] = target: Gal3S(b1-4)[Fuc(a1-3)]Glc
Procedure, shortened: as §1

[22] = target: Gal3S(b1-4)[Fuc(a1-3)]Glc6S
Procedure, shortened: as §1

[23] = target: Gal3S4S(b1-4)GlcNAc
Procedure, shortened: as §1

[24] = target: Gal3S6S(b1-4)GlcNAc
Procedure, shortened: as §1

[25] = target: Gal3S6S(b1-4)GlcNAc6S
Procedure, shortened: as §1

[26] = target: Gal4S(b1-4)GlcNAc
Procedure, shortened: as §1

[27] = target: Gal4S6S(b1-4)GlcNAc
Procedure, shortened: as §1

[28] = target: Gal6S(b1-3)GlcNAc
Procedure, shortened: as §1

[29] = target: Gal6S(b1-3)GlcNAc6S
Procedure, shortened: as §1

[30] = target: Gal6S(b1-4)Glc
Procedure, shortened: as §1

[31] = target: Gal6S(b1-4)Glc6S
Procedure, shortened: as §1

[32] = target: Gal6S(b1-4)GlcNAc
Procedure, shortened: as §1

[33] = target: Gal6S(b1-4)GlcNAc6S
Procedure, shortened: as §1

[34] = target: GalNAc(a1-3)Gal
Procedure, shortened: as §1

[35] = target: GalNAc(a1-3)GalNAc
Procedure, shortened: as §1

[36] = target: GalNAc(a1-3)GalNAc(a1-3)Gal(a1-4)Gal(b1-4)GlcNAc
Procedure, shortened: as §1

[37] = target: GalNAc(a1-3)GalNAc(b1-3)Gal(a1-4)Gal(b1-4)Glc
Procedure, shortened: as §1

[38] = target: GalNAc(a1-3)GalNAc(b1-3)Gal(a1-4)Gal(b1-4)GlcNAc
Procedure, shortened: as §1

[39] = target: GalNAc(b1-3)Gal
Procedure, shortened: as §1

[40] = target: GalNAc(b1-3)Gal(a1-4)Gal(b1-4)GlcNAc
Procedure, shortened: as §1

[41] = target: GalNAc(b1-3)Gal(a1-4)Gal(b1-4)GlcNAc(b1-3)Gal(b1-4)Glc
Procedure, shortened: as §1

[42] = target: GalNAc(b1-3)Gal(a1-6)Gal(b1-4)Glc
Procedure, shortened: as §1

[43] = target: GalNAc(b1-3)GalNAc
Procedure, shortened: as §1

[44] = target: GalNAc(b1-4)Gal(b1-4)Glc
Procedure, shortened: as §1

[45] = target: GalNAc(b1-4)GlcNAc
Procedure, shortened: as §1

B1: Eosinophil cationic protein (ECP) (Homo sapiens), P12724 (protein)
chain: MVPKLFTSQICLLLLLGLMGVEGSLHARPPQFTRAQWFAIQHISLNPPRCTIAMRAINNYRWRCKNQNTFLRTTFANVVNVCGNQSIRCPHNRTLNNCHRSRFRVPLLHCDLINPGAQNISNCTYADRPGRRFYVVACDNRDPRDSPRYPVVPVHLDTTI
For B1, the “glycan array binding signal (z-score)” value [1] was -0.015, the “glycan array binding signal (z-score)” value [2] was -0.089 and the “glycan array binding signal (z-score)” value [3] was -0.376. For the same binder, the “glycan array binding signal (z-score)” value [4] was -0.208, the “glycan array binding signal (z-score)” value [5] was -0.284 and the “glycan array binding signal (z-score)” value [6] was -0.361. For the same binder, the “glycan array binding signal (z-score)” value [7] was -0.088, the “glycan array binding signal (z-score)” value [8] was -0.091 and the “glycan array binding signal (z-score)” value [9] was -0.113. For the same binder, the “glycan array binding signal (z-score)” value [10] was -0.016, the “glycan array binding signal (z-score)” value [11] was -0.015 and the “glycan array binding signal (z-score)” value [12] was -0.081. The “glycan array binding signal (z-score)” value [13] was -0.343, the “glycan array binding signal (z-score)” value [14] was 0.215 and the “glycan array binding signal (z-score)” value [15] was -0.197. For the same binder, the “glycan array binding signal (z-score)” value [16] was -0.565, the “glycan array binding signal (z-score)” value [17] was -0.164 and the “glycan array binding signal (z-score)” value [18] was 0.915. The “glycan array binding signal (z-score)” value [19] was 0.818, the “glycan array binding signal (z-score)” value [20] was 0.063 and the “glycan array binding signal (z-score)” value [21] was 2.4. The “glycan array binding signal (z-score)” value [22] was 1.23, the “glycan array binding signal (z-score)” value [23] was -0.557 and the “glycan array binding signal (z-score)” value [24] was 2.7. For the same binder, the “glycan array binding signal (z-score)” value [25] was 1.89, the “glycan array binding signal (z-score)” value [26] was -0.476 and the “glycan array binding signal (z-score)” value [27] was 0.637. The “glycan array binding signal (z-score)” value [28] was -0.588, the “glycan array binding signal (z-score)” value [29] was -0.237 and the “glycan array binding signal (z-score)” value [30] was 0.193. For the same binder, the “glycan array binding signal (z-score)” value [31] was -0.014, the “glycan array binding signal (z-score)” value [32] was -0.171 and the “glycan array binding signal (z-score)” value [33] was 1.85. For the same binder, the “glycan array binding signal (z-score)” value [34] was 0.02, the “glycan array binding signal (z-score)” value [35] was -0.318 and the “glycan array binding signal (z-score)” value [36] was -0.338. The “glycan array binding signal (z-score)” value [37] was -0.258, the “glycan array binding signal (z-score)” value [38] was -0.257 and the “glycan array binding signal (z-score)” value [39] was -0.382. The “glycan array binding signal (z-score)” value [40] was -0.061, the “glycan array binding signal (z-score)” value [41] was -0.272 and the “glycan array binding signal (z-score)” value [42] was -0.24. The “glycan array binding signal (z-score)” value [43] was 0.192, the “glycan array binding signal (z-score)” value [44] was -0.123 and the “glycan array binding signal (z-score)” value [45] was -0.088.
